# Results: paper PMC12136788
# This is one part of the list.
# B1: chr12:100341478:100341579:+|3pUTR|ENSG00000136021|unk|FALSE|unique (ssRNA)
# RNA: GGGAGUUCUACAGUCCGACGAUCCUAUUCUCCUAUUGCUAAAUGUGUGAUAUAUAGAGAGGAUGUAUAAAAGGAAAUGGAAAUAGACUAUGUACUUGUCUGGUUUUUGUUUGUUUUUAUUUUGGAAUGCUUAUAAGCCUCCUUCAACAGAGGAUUGAGCAUCA
# B2: chr8:42175261:42175472:-|3pUTR|ENSG00000104368|msi1|FALSE|unique (ssRNA)
# RNA: GGGAGUUCUACAGUCCGACGAUCGUAUUCCUUUUGUGUACAGUGUGUAAAGUGUAAAUCCUUUUUCUUUAUAAACUUUAGAGUAGCAUGAGAGAAUUGUAUCAUUUGAACAACUAGGCUUCAGCAUAUUUAUAGCAAUCCAUGCAACAGAGGAUUGAGCAUCA
# B3: chr19:14119889:14120036:-|3pUTR|ENSG00000105011|msi1|total|mutant (ssRNA)
# RNA: GGGAGUUCUACAGUCCGACGAUCAGCAGACCCACUCCAGCUUUCUGGUGUCACAGGCGGGAAUGUCCGUCCGCCGGCCGACUCCGAUCCCAUUUCUGUCCUGCUCCCAGGAAGAUUCUCCGGUCCUCUUCAAUCCAGCAGCCCCAACAGAGGAUUGAGCAUCA
# B4: chr11:72192224:72192325:+|CDS|ENSG00000110195|unk|FALSE|unique (ssRNA)
# RNA: GGGAGUUCUACAGUCCGACGAUCAGACAUGGCUCAGCGGAUGACAACACAGCUGCUGCUCCUUCUAGUGUGGGUGGCUGUAGUAGGGGAGGCUCAGACAAGGAUUGCAUGGGCCAGGACUGAGCUUCUCAAUGUCUGCAUGAACAACAGAGGAUUGAGCAUCA
# B5: chr14:75048437:75048538:-|CDS|ENSG00000119684|unk|FALSE|unique (ssRNA)
# RNA: GGGAGUUCUACAGUCCGACGAUCUCAGAAGCGUGUGACUUCCGAUGAGAGGAGCAAUUUCCAGGAAGCAUGUAAUAAUAUUUUAGAUUCCUAUGAGAUGUUUAAUUUGCAGUCAAAAGCUGUGAAAAGAAAAACUACUGCAGACAACAGAGGAUUGAGCAUCA
# B6: chr10:73479331:73479449:-|CDS|ENSG00000107758|unk|FALSE|unique (ssRNA)
# RNA: GGGAGUUCUACAGUCCGACGAUCGUUGAUGUUCUGAAGAACCACUUGGUGAAAGAAGGUCGAGUAGAUGAAGAAAUUGCGCUUAGAAUUAUCAAUGAGGGUGCUGCCAUCCUUCGGAGAGAGAAAACCAUGAUAGAAGUAGAACAACAGAGGAUUGAGCAUCA
# Molecular target: MSI1 full-length (mouse, UniProt Q61474 1-362)
# Sequence of UniProt Q61474 (Q61474 whole entry): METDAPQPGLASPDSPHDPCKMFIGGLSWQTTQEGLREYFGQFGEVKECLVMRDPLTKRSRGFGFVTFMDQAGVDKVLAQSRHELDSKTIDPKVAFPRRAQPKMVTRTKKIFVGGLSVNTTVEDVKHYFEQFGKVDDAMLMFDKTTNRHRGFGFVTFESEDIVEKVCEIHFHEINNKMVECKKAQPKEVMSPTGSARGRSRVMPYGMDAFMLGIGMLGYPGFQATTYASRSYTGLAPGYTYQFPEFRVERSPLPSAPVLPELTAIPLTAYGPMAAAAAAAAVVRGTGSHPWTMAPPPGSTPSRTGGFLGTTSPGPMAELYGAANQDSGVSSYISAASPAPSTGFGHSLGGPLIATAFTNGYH
# Experiment: nsRBNS (natural sequence RNA bind-n-seq); RBNS binding buffer (assumed for nsRBNS): 25 mM Tris pH 7.5, 150 mM KCl, 3 mM MgCl2, 0.01% Triton X-100, 500 ug/ml BSA, 20 U/ml SUPERase-In, 4 C; UNK is unkempt and MSI1 is Musashi-1; names of the RNAs are library labels; protein concentration not given here; high values mean tight binding
row,Binder,binding signal
1,B1,0.287 enrichment R
2,B2,33.5 enrichment R
3,B3,0.641 enrichment R
4,B4,0.534 enrichment R
5,B5,1.39 enrichment R
6,B6,3.66 enrichment R
